Measurements as given in the supplement of paper PMC11876631.
± gives the standard deviation of the averaged measurements. Laboratory Escherichia coli strains with one amino-acid change in an essential protein, pooled on minimal glucose agar with carbenicillin or gentamicin at twice the control MIC (plus kanamycin and chloramphenicol for the plasmids), 48 h. Fold change of barcode share against drug-free plates; higher = less susceptible. Active = above 20 in both replicates (the paper's putatively resistant). '<' = one read or none on drug, '>' = one read or none on a drug-free plate. Shares are relative, so most strains fall below 1 when a few take over. Listed are strains with at least 15 reads on both drug-free plates, and hits; most hits rest on fewer reference reads. Replicate rank correlation about 0.5. Edits are read from barcodes.

Molecular target: Escherichia coli (laboratory strain)
Test: barcode share on antibiotic plates over drug-free plates; higher = less susceptible
Procedure: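 A pool of E. coli strains, each edited to carry one amino-acid change in an essential protein, was grown for 48 h on minimal glucose agar with or without antibiotic; strain barcodes were sequenced; mean of two replicates.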

[1] = antibiotic: carbenicillin, 2× MIC (3.1 µg/mL)
[2] = antibiotic: gentamicin, 2× MIC (MIC 0.45 µg/mL)

Row | Protein | fold change of barcode share [1] | fold change of barcode share [2]
1 | pdxH V183A (protein) MSDNDELQQIAHLRREYTKGGLRRRDLPADPLTLFERWLSQACEAKLADPTAMVVATVDEHGQPYQRIVLLKHYDEKGMVFYTNLGSRKAHQIENNPRVSLLFPWHTLERQVMVIGKAERLSTLEVMKYFHSRPRDSQIGAWVSKQSSRISARGILESKFLELKQKFQQGEVPLPSFWGGFRASLEQIEFWQGGEHRLHDRFLYQRENDAWKIDRLAP | 0.339 ± 0.035 | 0.017 ± 0.012
2 | pdxH V183Q (protein) MSDNDELQQIAHLRREYTKGGLRRRDLPADPLTLFERWLSQACEAKLADPTAMVVATVDEHGQPYQRIVLLKHYDEKGMVFYTNLGSRKAHQIENNPRVSLLFPWHTLERQVMVIGKAERLSTLEVMKYFHSRPRDSQIGAWVSKQSSRISARGILESKFLELKQKFQQGEVPLPSFWGGFRQSLEQIEFWQGGEHRLHDRFLYQRENDAWKIDRLAP | 0.233 ± 0.062 | 0.0211 ± 0.0022
3 | plsB L347A (protein) MSGWPRIYYKLLNLPLSILVKSKSIPADPAPELGLDTSRPIMYVLPYNSKADLLTLRAQCLAHDLPDPLEPLEIDGTLLPRYVFIHGGPRVFTYYTPKEESIKLFHDYLDLHRSNPNLDVQMVPVSVMFGRAPGREKGEVNPPLRMLNGVQKFFAVLWLGRDSFVRFSPSVSLRRMADEHGTDKTIAQKLARVARMHFARQRLAAVGPRLPARQDLFNKLLASRAIAKAVEDEARSKKISHEKAQQNAIALMEEIAANFSYEMIRLTDRILGFTWNRLYQGINVHNAERVRQLAHDGHELVYVPCHRSHMDYLLLSYVLYHQGLVPPHIAAGINLNFWPAGPIFRRAGAFFIRRTFKGNKLYSTVFREYLGELFSRGYSVEYFVEGGRSRTGRLLDPKTGTLSMTIQAMLRGGTRPITLIPIYIGYEHVMEVGTYAKELRGATKEKESLPQMLRGLSKLRNLGQGYVNFGEPMPLMTYLNQHVPDWRESIDPIEAVRPAWLTPTVNNIAADLMVRINNAGAANAMNLCCTALLASRQRSLTREQLTEQLNCYLDLMRNVPYSTDSTVPSASASELIDHALQMNKFEVEKDTIGDIIILPREQAVLMTYYRNNIAHMLVLPSLMAAIVTQHRHISRDVLMEHVNVLYPMLKAELFLRWDRDELPDVIDALANEMQRQGLITLQDDELHINPAHSRTLQLLAAGARETLQRYAITFWLLSANPSINRGTLEKESRTVAQRLSVLHGINAPEFFDKAVFSSLVLTLRDEGYISDSGDAEPAETMKVYQLLAELITSDVRLTIESATQGEG | 0.291 ± 0.08 | 0.0292 ± 0.029
4 | plsB L347D (protein) MSGWPRIYYKLLNLPLSILVKSKSIPADPAPELGLDTSRPIMYVLPYNSKADLLTLRAQCLAHDLPDPLEPLEIDGTLLPRYVFIHGGPRVFTYYTPKEESIKLFHDYLDLHRSNPNLDVQMVPVSVMFGRAPGREKGEVNPPLRMLNGVQKFFAVLWLGRDSFVRFSPSVSLRRMADEHGTDKTIAQKLARVARMHFARQRLAAVGPRLPARQDLFNKLLASRAIAKAVEDEARSKKISHEKAQQNAIALMEEIAANFSYEMIRLTDRILGFTWNRLYQGINVHNAERVRQLAHDGHELVYVPCHRSHMDYLLLSYVLYHQGLVPPHIAAGINLNFWPAGPIFRRDGAFFIRRTFKGNKLYSTVFREYLGELFSRGYSVEYFVEGGRSRTGRLLDPKTGTLSMTIQAMLRGGTRPITLIPIYIGYEHVMEVGTYAKELRGATKEKESLPQMLRGLSKLRNLGQGYVNFGEPMPLMTYLNQHVPDWRESIDPIEAVRPAWLTPTVNNIAADLMVRINNAGAANAMNLCCTALLASRQRSLTREQLTEQLNCYLDLMRNVPYSTDSTVPSASASELIDHALQMNKFEVEKDTIGDIIILPREQAVLMTYYRNNIAHMLVLPSLMAAIVTQHRHISRDVLMEHVNVLYPMLKAELFLRWDRDELPDVIDALANEMQRQGLITLQDDELHINPAHSRTLQLLAAGARETLQRYAITFWLLSANPSINRGTLEKESRTVAQRLSVLHGINAPEFFDKAVFSSLVLTLRDEGYISDSGDAEPAETMKVYQLLAELITSDVRLTIESATQGEG | 0.712 ± 0.59 | < 0.0116
5 | plsB M430A (protein) MSGWPRIYYKLLNLPLSILVKSKSIPADPAPELGLDTSRPIMYVLPYNSKADLLTLRAQCLAHDLPDPLEPLEIDGTLLPRYVFIHGGPRVFTYYTPKEESIKLFHDYLDLHRSNPNLDVQMVPVSVMFGRAPGREKGEVNPPLRMLNGVQKFFAVLWLGRDSFVRFSPSVSLRRMADEHGTDKTIAQKLARVARMHFARQRLAAVGPRLPARQDLFNKLLASRAIAKAVEDEARSKKISHEKAQQNAIALMEEIAANFSYEMIRLTDRILGFTWNRLYQGINVHNAERVRQLAHDGHELVYVPCHRSHMDYLLLSYVLYHQGLVPPHIAAGINLNFWPAGPIFRRLGAFFIRRTFKGNKLYSTVFREYLGELFSRGYSVEYFVEGGRSRTGRLLDPKTGTLSMTIQAMLRGGTRPITLIPIYIGYEHVAEVGTYAKELRGATKEKESLPQMLRGLSKLRNLGQGYVNFGEPMPLMTYLNQHVPDWRESIDPIEAVRPAWLTPTVNNIAADLMVRINNAGAANAMNLCCTALLASRQRSLTREQLTEQLNCYLDLMRNVPYSTDSTVPSASASELIDHALQMNKFEVEKDTIGDIIILPREQAVLMTYYRNNIAHMLVLPSLMAAIVTQHRHISRDVLMEHVNVLYPMLKAELFLRWDRDELPDVIDALANEMQRQGLITLQDDELHINPAHSRTLQLLAAGARETLQRYAITFWLLSANPSINRGTLEKESRTVAQRLSVLHGINAPEFFDKAVFSSLVLTLRDEGYISDSGDAEPAETMKVYQLLAELITSDVRLTIESATQGEG | 0.558 ± 0.38 | 0.0113 ± 0.013
